PubChem BioAssay AID1345082 (National Center for Advancing Translational Sciences (NCATS), 2018)
In all, about 94,000 compounds went through this assay and about 4,000 (4.3%) were called active. The shares of active, inactive and inconclusive entries below differ from those in the screen. The call rests on the fitted dose curve; in most records, active means well fitted inhibition curve with a large enough effect; inconclusive means small, poorly fitted or top-dose-only effect; inactive means no such curve, though single readings can be large or run the other way. Potencies beside an inconclusive call are fits to weak or partial responses and may not hold up.

Assay: Cytotoxic Profiling in NIH 3T3 Cell Line of Diverse Libraries Using Quantitative High-Throughput Screening; further: nearly all actives have a fitted effect of over 55% in size
Conditions: NIH 3T3 viability, CellTiter-Glo ATP luminescence, 48-72 h; activity change, negative = cytotoxicity: at 96.7 µM (top of the series); series mostly up to 96.7 µM
How it was run: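 Viability of NIH 3T3 cells after 48 or 72 hr compound treatment at 37 °C was assessed by CellTiter-Glo, with luminescence imaged following a 10 min room-temperature step.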
On the % scale 0 is the no-effect control and ±100 the full control effect; potency means the concentration at half of the fitted maximal effect; tags describe the fitted curve by direction and shape.

Compound | Potency | outcome | activity change, negative = cytotoxicity
CC(C)(C)c1nc(C(=O)NCc2ccc(F)cc2)n2ccccc12 | inconclusive: 44.7 µM [inhibitor, partial curve, poor fit] |  | 
O=C1CC(c2noc(COc3ccccc3)n2)CN1C1CCCCC1 (stereo unspecified) | inconclusive: 50.1 µM [inhibitor, partial curve, poor fit] |  | 
CC(C)NC(=O)NCc1nnc2n1C(C(=O)NCc1cccnc1)CC2 (stereo unspecified) |  | inactive | 
Clc1ccccc1C1(c2ccnc(-c3ccccc3)n2)CCNCC1 | inconclusive: 28.2 µM [inhibitor, full curve, poor fit] |  | 
CN(c1cc(=O)c2ccnc(-c3cncnc3)c2o1)C1CCOCC1 | active: 79.4 µM |  | 
CNC(=O)c1cc(C2CC2)nc2c1c(C1CCN(C(=O)c3ccncc3)C1)nn2C (stereo unspecified) |  |  | inactive: -6.59%
Cc1ccc(S(=O)(=O)N2CCC(CCC(=O)NCCCc3ccccc3)CC2)cc1 | inconclusive: 50.1 µM [inhibitor, partial curve, poor fit] |  | 
O=C(NCCC1=CCCCC1)c1nnn2cc(-c3ccccc3)[nH]c(=O)c12 | inconclusive: 50.1 µM [inhibitor, partial curve, poor fit] |  | 
Cc1cnc(C2CC2)n1CC1CCN(C(=O)Cc2ccccc2)CC1 |  |  | inactive: 0.979%
COC(=O)N1CCCC(c2nn(-c3cccc(Cl)c3)c(=O)[nH]2)C1 (stereo unspecified) | inconclusive: 39.8 µM [inhibitor, partial curve, poor fit] |  | 
O=C(NCc1ccc(F)cc1)c1ccc2nnc(Cc3ccco3)n2c1 | inconclusive: 89.1 µM [inhibitor, single point] |  | 
CCNC(=O)c1n[nH]c2c1CN(C(=O)c1ccc(OC(F)(F)F)cc1)CC2 | inconclusive: 39.8 µM [inhibitor, partial curve, poor fit] |  | 
Cc1ccc(NC(=O)c2cc(C(C)(C)C)nc3c2cnn3C)cc1 | inconclusive: 89.1 µM [inhibitor, partial curve, poor fit] |  | 
O=c1cc(-c2ccncc2)oc2c(-c3cccc(O)c3)nccc12 | active: 22.4 µM |  | 
OCC1(CN2CCCC2)CCN(Cc2ccc(OC(F)(F)F)cc2)CC1 | inconclusive: 56.2 µM [inhibitor, partial curve, poor fit] |  | 
COc1ccc(CN(C(=O)c2ccco2)c2ccc(CC(=O)NCc3ccccc3)cc2)cc1 | active: 35.5 µM |  | 
Cc1cnn(CC(=O)N2CCc3nn(Cc4ccccc4)c(=O)n3CC2)c1 |  |  | inactive: 0.462%
O=[S+]1([O-])c2ccccc2C(OCc2ccccc2)CN1c1c(Cl)cccc1Cl (stereo unspecified) | inconclusive: 35.5 µM [inhibitor, partial curve, poor fit] |  | 
COc1ccc(-c2[nH]nc3ncc(-c4ccccc4O)nc23)cc1F | inconclusive: 56.2 µM [inhibitor, partial curve, poor fit] |  | 
Cc1ccccc1N1CCN(C(=O)c2cc3c(s2)CCN(C(=O)c2ccccc2)C3)CC1 |  | inactive | 
Cn1cc(-c2cccc(CCOc3cnc4c(ccn4CC(=O)O)c3)c2)cn1 | inconclusive: 50.1 µM [inhibitor, partial curve, poor fit] |  | 

Compound | Potency | outcome | activity change, negative = cytotoxicity
O=[S+]([O-])(Nc1ccccc1)c1ccc2c(c1)OCCN(Cc1ccncc1)C2 | inconclusive: 50.1 µM [inhibitor, partial curve, poor fit] |  | 
CN1CCN(C(=O)[C@@H]2CCC[C@@H](NCc3cccc4c3OCO4)CN(C)C(=O)C2)CC1 |  |  | inactive: -3.76% [at 138 µM]
O=C1CN(Cc2ccc(-c3cc(F)cc(F)c3)cc2)CCN1c1cc(Cl)ncn1 | inconclusive: 50.1 µM [inhibitor, partial curve, poor fit] |  | 
CC(C)c1nc(NC(=O)Cn2nc3c(cc2=O)CCCC3)n[nH]1 |  |  | inactive: 2.93%
COCCn1cc(CN2CCN(c3ccccc3F)CC2)ccc1=O | inconclusive: 39.8 µM [inhibitor, partial curve] |  | 
Cn1cc(-c2cn(C)c(=O)n3cc(COc4ccc(Cl)cc4)nc23)cn1 | inconclusive: 35.5 µM [inhibitor, partial curve, poor fit] |  | 
O=C(NC[C@H]1O[C@@H]2C[C@@H](CC(=O)N3CCOCC3)O[C@@H]2[C@@H]1O)NC1CCCCC1 |  | inactive [at 174 µM] | 
Cc1oc(-c2cccc(Cl)c2)nc1CN1CCN2C(=O)CNC(=O)C2C1 (stereo unspecified) |  |  | inactive: -15.6%
COc1ccc(-c2onc(C)c2C(=O)NCc2ccc3c(c2)OCO3)cc1 | inconclusive: 35.5 µM [inhibitor, partial curve] |  | 
COc1cccc(-c2c(C(=O)NCC3CC3)nc3sccn23)c1 | inconclusive: 44.7 µM [inhibitor, partial curve, poor fit] |  | 
CCNC(=O)N1CCOc2ccc(CCC(=O)NCCc3ccccc3)cc2C1 |  |  | inactive: -28.9%
CN(C)CC1(COc2cccnc2)C[C@@H](O)[C@@H](O)C1 (stereo partly specified) |  |  | inactive: -13.1% [at 138 µM]
O=C1Cc2c(-c3cccc(C(F)(F)F)c3)n[nH]c2CN1Cc1ccccc1 | inconclusive: 100 µM [inhibitor, partial curve, poor fit] |  | 
O=C(CCCc1cn[nH]c1)N1CCCC(CCc2c(F)cccc2F)C1 (stereo unspecified) | inconclusive: 35.5 µM [inhibitor, full curve, poor fit] |  | 
Cc1noc2c(Nc3ccncc3)cc(-c3ccc(F)cc3)nc12 | inconclusive: 56.2 µM [inhibitor, partial curve, poor fit] |  | 
COc1ccc(C(=O)N2CCC3(CC2)N=C(c2cccc(Br)c2)NO3)c(OC)c1 | inconclusive: 28.2 µM [inhibitor, partial curve, poor fit] |  | 
CCC1Oc2ccc(NC(=O)c3ccccc3)cc2CN(Cc2ccc(OC)cc2)C1=O (stereo unspecified) | inconclusive: 50.1 µM [inhibitor, partial curve, poor fit] |  | 
COc1ccccc1C(=O)NC1CCN(c2cnn(CC3CC3)c(=O)c2)CC1 | inconclusive: 50.1 µM [inhibitor, partial curve, poor fit] |  | 
CC(=O)N1CCCC(C(=O)N2CCC(Cc3noc(C)n3)CC2)C1 (stereo unspecified) |  |  | inactive: -2.08%
COc1ccccc1CC(=O)N1CCC2(CC1)N=C(c1ccc(C)cc1)NO2 | inconclusive: 50.1 µM [inhibitor, partial curve, poor fit] |  | 
